Values joined by “and” are separate entries in the source; they are usually repeats but may differ in a detail not shown here. Equal entries are not always repeated. In all, about 400,000 compounds went through this assay and about 2,200 (0.55%) were called active. This list was built around the results that the source calls inconclusive (neither active nor inactive); the mix of calls is not that of the screen. The call rests on the fitted dose curve; in most records, active means well fitted inhibition curve with a large enough effect; inconclusive means small, poorly fitted or top-dose-only effect, or another doubt; inactive means no such curve, though single readings can be large or run the other way. Potencies of inconclusive entries are doubtful fits and often do not repeat.
These compounds were tested against DNA polymerase kappa (Homo sapiens) (UniProt Q9UBT6) (assay: qHTS for Inhibitors of Polymerase Kappa). Settings: purified Pol kappa, fluorescent DNA synthesis assay, 10 min; series mostly up to 107 µM.
Outline: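 10 nM Pol kappa was preincubated with compounds for 15 min at room temperature. Reaction started with 50 nM (final) substrate. Fluorescence read kinetically at 0 and 10 min.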
On the % scale 0 is the no-effect control and ±100 the full control effect; potency means the concentration at half of the fitted maximal effect; tags describe the fitted curve by direction and shape.

Chain of UniProt Q9UBT6 (Q9UBT6 whole entry, looked up): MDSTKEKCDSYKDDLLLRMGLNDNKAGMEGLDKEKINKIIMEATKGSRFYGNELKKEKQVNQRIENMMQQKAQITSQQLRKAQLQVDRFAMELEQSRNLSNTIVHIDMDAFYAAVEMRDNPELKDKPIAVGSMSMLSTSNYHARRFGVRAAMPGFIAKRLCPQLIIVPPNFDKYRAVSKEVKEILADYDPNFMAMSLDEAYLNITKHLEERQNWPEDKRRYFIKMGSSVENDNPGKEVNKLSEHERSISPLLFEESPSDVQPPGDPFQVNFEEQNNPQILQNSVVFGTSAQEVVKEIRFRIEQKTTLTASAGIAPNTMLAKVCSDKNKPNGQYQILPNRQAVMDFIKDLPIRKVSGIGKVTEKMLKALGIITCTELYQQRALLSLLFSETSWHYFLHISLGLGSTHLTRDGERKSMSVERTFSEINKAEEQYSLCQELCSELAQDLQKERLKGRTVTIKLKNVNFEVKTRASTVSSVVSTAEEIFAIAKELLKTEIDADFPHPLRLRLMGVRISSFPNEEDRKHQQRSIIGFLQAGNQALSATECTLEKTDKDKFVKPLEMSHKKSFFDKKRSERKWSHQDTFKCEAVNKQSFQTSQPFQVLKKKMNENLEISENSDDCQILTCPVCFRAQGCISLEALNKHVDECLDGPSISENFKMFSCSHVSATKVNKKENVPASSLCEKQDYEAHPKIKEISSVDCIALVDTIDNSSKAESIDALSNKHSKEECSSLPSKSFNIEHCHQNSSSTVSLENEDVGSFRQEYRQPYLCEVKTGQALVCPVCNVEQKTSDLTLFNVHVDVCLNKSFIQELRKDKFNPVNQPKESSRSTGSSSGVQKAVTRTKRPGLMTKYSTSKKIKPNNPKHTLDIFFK

Row | SMILES | Potency | activity, negative = inhibition
1 | CCCCN(CC)CCCNC(=O)C1CCN(c2nc3ccc(CC)cc3s2)CC1 | inactive | –
2 | O=C(COc1ccccc1)OC(C(=O)c1ccccc1)c1ccccc1 (stereo not drawn) | inconclusive: 79.4 µM [inhibitor, partial curve, poor fit] | –
3 | COCCn1c(SCC(=O)c2c(N)n(C)c(=O)n(C)c2=O)nc2ccccc21 | inactive | –
4 | CCOc1c(O)ccc(C2NC(=O)NC(C)=C2C(=O)OC)c1[N+](=O)[O-] (stereo not drawn) | inconclusive: 79.4 µM [inhibitor, partial curve, poor fit] | –
5 | COC(=O)c1c(NC(=O)c2nc(SCc3ccc(C)cc3)ncc2Cl)sc2c1CCCC2 | inconclusive: 89.1 µM [inhibitor, single point] | –
6 | O=C(C[n+]1cc(Br)cc2ccccc21)c1ccc(O)c(O)c1 | active: 2.82 µM | –
7 | NC(=O)c1ccc(NC(=O)COC(=O)c2cc3c(s2)CCC3)cc1 | inconclusive: 89.1 µM [inhibitor, single point] | –
8 | O=C(O)C1=C(CSc2nnnn2CS(=O)(=O)O)CS[C@@H]2[C@H](NC(=O)[C@H](O)c3ccccc3)C(=O)N12 | inconclusive: 17.8 µM [inhibitor, single point] | –
9 | CCOC(=O)c1cccc(NS(=O)(=O)c2c(C)nc3sc(C)cn3c2=O)c1 | inconclusive: 100 µM [inhibitor, single point] | –
10 | O=C(CCSCCC(=O)NCc1ccco1)NCc1ccco1 | inconclusive: 56.2 µM [inhibitor, partial curve, poor fit] | –
11 | CCn1cc(C(=O)NCCOC)c(=O)c2cc(S(=O)(=O)N3CCOCC3)ccc21 | inactive | –
12 | CCOc1ccccc1CN1CCNC(=O)C1CC(=O)NC1CCCCCCC1 (stereo not drawn) | inactive | –
13 | COc1ccc(Cc2nc(C)cc(Cl)n2)cc1[N+](=O)[O-] | inconclusive: 89.1 µM [inhibitor, single point] | –
14 | COc1ccc(NC(=O)Cn2c(=O)n(CC3CCCO3)c(=O)c3ccccc32)cc1 (stereo not drawn) | inconclusive: 89.1 µM [inhibitor, single point] | –
15 | O=C(CCN1C(=O)/C(=C\c2cccs2)SC1=S)Nc1ccc(C(=O)O)cc1 | inconclusive: 100 µM [inhibitor, single point] | –
16 | COc1ccc2c(CC(=O)N3CCN(S(=O)(=O)c4ccc(F)cc4)CC3)coc2c1 | inconclusive: 79.4 µM [inhibitor, single point] | –
17 | Cc1[nH][nH]c(=O)c1C(c1c(C)[nH][nH]c1=O)c1cn(Cc2ccccc2Cl)c2ccccc12 | inactive | –
18 | COc1cccc(-c2nccc(N(C)Cc3ccco3)n2)c1 | inactive | –
19 | COc1ccc(/C=N/NC(=O)c2nnn(-c3nonc3N)c2-c2cccc(OC)c2)cc1 | inactive | –
20 | Cc1cc(C)c(OCC(=O)Nc2ccc(NC(=O)c3ccco3)cc2)c([N+](=O)[O-])c1 | inactive | –
21 | Cc1ccc(SCc2cn3cc(Cl)ccc3n2)cc1 | inactive | –
22 | O=c1c2ccccc2oc2cc(OCc3cccc(F)c3)cc(O)c12 | inconclusive: 31.6 µM [inhibitor, partial curve, poor fit] | –

Row | SMILES | Potency | activity, negative = inhibition
23 | CC(=O)Oc1ccc(C(=O)Nc2cccc(C(=O)c3cccc(NC(=O)c4ccc(OC(C)=O)cc4)c3)c2)cc1 | inconclusive: 56.2 µM [inhibitor, partial curve, poor fit] | –
24 | COc1ccc2cc(S(=O)(=O)NCc3cccnc3)ccc2c1 | inactive | –
25 | NC[C@H](O)c1ccc(O)c(O)c1 | active: 8.91 µM and active: 708 nM | –
26 | O=S(=O)(O)c1cc(O)c(N=Nc2ccc(O)cc2O)c2ccccc12 | active: 20 µM | –
27 | Cn1c2ccccc2c(=O)c2ccc(C#CC3(N)CCCCC3)cc21 | inconclusive: 56.2 µM [inhibitor, partial curve, poor fit] | –
28 | CC(=O)C1(O)Cc2c(O)c3c(c(O)c2C(OC2CC(N)C(O)C(C)O2)C1)C(=O)c1c(O)cccc1C3=O (stereo not drawn) | active: 25.1 µM and active: 7.08 µM | –
29 | NNC(=O)c1oc2nc(-c3ccco3)cc(-c3ccco3)c2c1N | inconclusive: 89.1 µM [inhibitor, single point] | –
30 | CCOC(=O)C(C)Sc1nc2c(c(=O)[nH]c(=O)n2C)n1C/C=C(/C)Cl (stereo not drawn) | inconclusive: 89.1 µM [inhibitor, single point] | –
31 | COC(=O)c1cc(NC(=O)c2ccc(C)cc2)c(=O)oc1C | inconclusive: 89.1 µM [inhibitor, partial curve, poor fit] | –
32 | Cc1ccccc1-c1cc(C(=O)N2CCCC2)c2ccccc2n1 | inconclusive: 89.1 µM [inhibitor, single point] | –
33 | O=C1S/C(=C\C=C\c2ccco2)C(=O)N1c1ccc(O)cc1 | inconclusive: 89.1 µM [inhibitor, single point] | –
34 | CSC1=NSC2=NC(=O)/C(=C/c3coc4ccc(O)cc4c3=O)C(=N)N12 | active: 39.8 µM | –
35 | CCOC(=O)c1cccc(NC(=O)c2ccc3snnc3c2)c1 | inactive | –
36 | Cc1ccc(NC(=O)CC2Sc3ccccc3NC2=O)c(Br)c1 (stereo not drawn) | inactive | –
37 | CN(C)C(=O)CCSC(SCCC(=O)O)c1cccc(/C=C/c2ccc3ccc(Cl)cc3n2)c1 (stereo not drawn) | – | inactive: 1.69% [at 19.4 µM]
38 | Cn1c(SCC(=O)N/N=C/c2ccc(O)c(O)c2)nc2ccccc21 | inconclusive: 79.4 µM [inhibitor, partial curve, poor fit] | –
39 | CC1=C(c2ccc(C)c(C)c2)S(=O)(=O)N=C1N1CCC(C(=O)NCc2ccc(Cl)cc2)CC1 | inconclusive: 89.1 µM [inhibitor, single point] | –
40 | CCOC(=O)c1ccccc1NC(=O)c1ccc2nccnc2c1 | inconclusive: 89.1 µM [inhibitor, single point] | –
41 | CC1(C)c2ccccc2N2CC(=O)N(CC(N)=O)C21C (stereo not drawn) | active: 44.7 µM | –
42 | Nc1cc(C(=O)O)c(N)c2c1C(=O)c1ccccc1C2=O | inconclusive: 89.1 µM [inhibitor, single point] | –
43 | Cc1ccc(C)c(N2CCN(C(c3ccc(F)cc3)c3nnc(-c4ccccc4)o3)CC2)c1 (stereo not drawn) | inconclusive: 100 µM [inhibitor, single point] | –
